In paper PMC6919601, “Identification of Plasmodium dipeptidyl aminopeptidase allosteric inhibitors by high throughput screening” (PLoS ONE, 2019):
The whole screen tested about 110,000 compounds, of which about 230 (0.21%) showed an effect of 50% or more. This is one part of the list.

molecular target: DPAP1 (Plasmodium falciparum, UniProt Q8IIJ9); test: primary screen, percent inhibition; read by cleavage of a fluorogenic dipeptide substrate; higher = more effect of the substance; design: species or system P. falciparum D10 trophozoite lysates; single well
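Further: 30 min substrate incubation versus DMSO and 10 µM JCP410 controls.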

Chain of DPAP1 (Q8IIJ9 whole entry, looked up): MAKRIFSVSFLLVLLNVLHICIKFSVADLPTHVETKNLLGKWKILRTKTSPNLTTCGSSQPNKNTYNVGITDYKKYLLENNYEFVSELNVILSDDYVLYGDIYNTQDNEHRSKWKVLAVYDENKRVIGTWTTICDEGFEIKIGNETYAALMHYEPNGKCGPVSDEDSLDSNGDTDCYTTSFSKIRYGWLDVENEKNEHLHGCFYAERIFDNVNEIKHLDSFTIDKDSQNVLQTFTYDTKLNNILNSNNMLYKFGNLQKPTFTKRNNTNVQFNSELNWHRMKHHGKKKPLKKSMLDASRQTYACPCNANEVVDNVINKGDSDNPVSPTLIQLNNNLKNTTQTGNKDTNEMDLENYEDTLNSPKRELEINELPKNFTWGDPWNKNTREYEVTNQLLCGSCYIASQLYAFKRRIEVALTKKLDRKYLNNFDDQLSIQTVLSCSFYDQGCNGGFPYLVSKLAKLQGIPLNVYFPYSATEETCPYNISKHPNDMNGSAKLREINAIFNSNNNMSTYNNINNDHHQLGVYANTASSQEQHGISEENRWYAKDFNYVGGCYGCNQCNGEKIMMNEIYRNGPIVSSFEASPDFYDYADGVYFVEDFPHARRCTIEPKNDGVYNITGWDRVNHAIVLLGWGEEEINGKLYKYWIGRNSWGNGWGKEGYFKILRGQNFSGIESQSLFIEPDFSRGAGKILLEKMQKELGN

| Structure (SMILES) | % Inhibition @ 10 uM [%] |
| --- | --- |
| COc1ccc(/C=C2\SC(=O)N(Cc3ccc(F)cc3)C2=O)c(OC)c1 | 5.28 |
| OCC1OC(Nc2ccc(OC(F)(F)Cl)cc2)C(O)C(O)C1O (centres unmarked) | -2.67 |
| Cc1cc(N)n(-c2ccccc2Cl)n1 | 4.01 |
| CC(C)c1ccc(S(=O)(=O)N2CCN(c3ccccc3F)CC2)cc1 | -0.425 |
| COc1ccc(C2CC(C(F)(F)F)n3ncc(C(=O)O)c3N2)cc1OC (centres unmarked) | 4.86 |
| Cc1nc2c3c(-c4ccccc4)c(-c4ccccc4)oc3ncn2n1 | -3.91 |
| Cc1cc(C)cc(N(CC(=O)Nc2ccc(F)cc2)S(=O)(=O)c2ccccc2)c1 | 2.42 |
| Cc1ccc(CNC(=O)N2CCC(CN3CCOCC3)CC2)cc1 | 2.47 |
| CC(O)CN(Cc1ccc(F)c(F)c1)CC(C)O (centres unmarked) | -3.27 |
| COc1ccccc1C(=O)Nc1ccc(Cl)c(Cl)c1 | -2.51 |
| Cc1ccc2cccc(OCc3nnc(SCC(=O)O)n3C)c2n1 | -7.65 |
| O=[N+]([O-])c1cccc(S(=O)(=O)/C=C/c2ccccc2)c1 | -3.55 |
| NC(=O)c1ccc(NC(=O)C(Sc2ccccc2)c2ccccc2)cc1 (centres unmarked) | -6.59 |
| CC(C)CN(CC(C)C)S(=O)(=O)c1ccc(CN2C(=O)c3cccnc3C2=O)cc1 | -3.9 |
| O=C(O)c1c2c(nc3ccc(Br)cc13)CCCCC2 | 2.99 |
| CCOC(=O)c1c(C)n(C)c2cc(CN(C)C)c(O)c(CN(C)C)c12 | 5 |
| CC(C)CN(CCNC(=O)CN1N=C(c2ccc(Cl)cc2)CCC1=O)CC(C)C | 2.18 |
| Cn1c(=O)c2c(nc(CN3CCN(CCO)CC3)n2CCCc2ccccc2)n(C)c1=O | -3.23 |
| CCOc1ccc(NC(=O)CCC(=O)c2ccc(OC)cc2)cc1 | 4.67 |
| Cc1ccc(-n2c(CNCc3cccnc3)nc3ccccc3c2=O)cc1 | -2.98 |
| Cc1ccc(C(=O)N2CCC(Cc3ccccc3)CC2)cc1 | -1.48 |
| CCN(CC)S(=O)(=O)c1cc(C(=O)OC)ccc1Br | 0.135 |
| CCCCNS(=O)(=O)c1ccc(NC(C)=O)cc1 | 5.69 |
| Cc1ccc(S(=O)(=O)N2CCN=C2c2ccccc2)cc1C | -10.9 |
| Cc1ccccc1N(CC(=O)NCC1CCCO1)S(C)(=O)=O (centres unmarked) | 0.161 |
| COc1ccc(CNC(=O)c2nnn(-c3cccc(C(F)(F)F)c3)c2N)cc1 | 0.4 |

| Structure (SMILES) | % Inhibition @ 10 uM [%] |
| --- | --- |
| COc1ccc(Br)cc1/C=c1\sc2nnc(-c3ccccc3C)n2c1=O | 0.222 |
| O=C(CCc1ccccc1)Nc1ccc(S(=O)(=O)N2CCCCCC2)cc1 | 0.764 |
| CC1=C(C(=O)OCCc2ccccc2)C(c2cccc(F)c2)NC(=O)N1 (centres unmarked) | 4.38 |
| CCC(C)c1ccc(NS(=O)(=O)c2ccc(F)cc2)cc1 (centres unmarked) | -3.15 |
| O=C(Nc1ccc(S(=O)(=O)N2CCc3ccccc32)cc1)c1cccs1 | 1.01 |
| CCC(C(=O)NCC1CCCO1)n1nc(C)c2sc3ccccc3c2c1=O (centres unmarked) | -0.229 |
| CCOc1ccc(C(C)NC(=O)c2ccc(Cl)cc2)cc1OCC (centres unmarked) | 3.44 |
| Cc1ccc(-c2cn3nc(C(C)C)sc3n2)c(C)c1 | -6.43 |
| Cc1ccc(S(=O)(=O)N2CCC(Cc3ccccc3)CC2)cc1[N+](=O)[O-] | -2.77 |
| CCC(C)(C)NC(=O)Cn1c(-c2ccccc2)cc(C(C)=O)c1C | -2.1 |
| CN(C)c1cc(NC(=O)C23CC4CC(C2)C(C4)C3)c2ccccc2n1 | -2.42 |
| CC(C)CCNC(=O)C1CCC(CNS(=O)(=O)c2ccc(Cl)cc2)CC1 (centres unmarked) | -4.53 |
| CN(Cc1ccccc1)C(=O)c1ccc(F)cc1 | -12 |
| Cc1ccc(C)c(NC2=C(Cl)C(=O)N(Cc3ccccc3)C2=O)c1 | -0.99 |
| Nc1nc(Nc2ccc(Cl)cc2)nc(-c2cc(Cl)ccc2O)n1 | 1.19 |
| COc1cc(-n2nc(C)c(/C=N/c3ccc(Cl)c(C(=O)O)c3)c2O)ccc1Cl | 4.67 |
| COc1ccc(N(CC(=O)Nc2cc(C)cc(C)c2)S(=O)(=O)c2ccc(NC(C)=O)cc2)cc1 | 3.09 |
| COc1ccc(N(CC(=O)Nc2cc(C)ccc2C)S(=O)(=O)c2ccccc2)cc1OC | -6.39 |
| CCSC1=C(C#N)C(c2ccc(F)cc2)CC(=O)N1 (centres unmarked) | 0.851 |
| Cc1ccc2onc(CNC(=O)NCc3ccccc3Cl)c2c1 | 2.46 |
| Cc1oc(-c2ccc(Cl)cc2)nc1CS(=O)CC(=O)NCC1CCCO1 (centres unmarked) | -1.05 |
| Fc1cc(F)c(F)c(-n2ncc3c2ncn2nc(-c4ccccc4)nc32)c1F | 2.19 |
| N#Cc1ccccc1-c1ccc(/C=C2/SC(=O)N(CC(=O)N3CCOCC3)C2=O)o1 | 0.189 |
| CC1CCC(N2CCN(c3ccccc3)CC2)CC1 (centres unmarked) | 0.217 |
| O=C(CSc1nc2ccccc2o1)N1CCN(c2nnc(-c3ccccc3)c3ccccc23)CC1 | 2.46 |
| O=C(NCCc1ccccc1)c1cc(-c2ccc(O)cc2)on1 | 6.29 |

| Structure (SMILES) | % Inhibition @ 10 uM [%] |
| --- | --- |
| CC(NC(=O)COCc1cc(-c2cccs2)on1)c1ccccc1 (centres unmarked) | -7.33 |
| Cc1ccc(NC(=O)c2cccc(Cl)c2)cc1O | -3.24 |
| Cc1ccc(S(=O)(=O)c2nc(-c3ccc(F)cc3)oc2N(C)C)cc1 | -5.54 |
| COc1ccc(C(=O)Nc2sc(Cc3ccccc3)c(C)c2C(N)=O)cc1 | -1.98 |
| CC(=O)Nc1ccccc1-c1nc2cc3ccccc3cc2n(Cc2ccccc2)c1=O | -2.8 |
| CS(=O)(=O)c1ccc2nc(NC(=O)CCC3CCCCC3)sc2c1 | -1.28 |
| CCOc1ccc(CCNC(=O)CN2C(=O)CSc3c2c(C)nn3-c2ccccc2)cc1 | -3.04 |
| COc1cc2c(cc1OC)C(C(=O)O)C(c1cccnc1)N(C)C2=O (centres unmarked) | -0.74 |
| Nc1c(C(=O)NC2CCCCC2)sc2nc3c(cc12)CN(Cc1ccccc1)CC3 | 2.34 |
| CC(C)c1ccc(C2NC(C(=O)O)Cc3c2[nH]c2ccccc32)cc1 (centres unmarked) | -0.0372 |
| CN1CCN(CCCNC(=O)Cn2ncc3c4ccccc4n(C)c3c2=O)CC1 | -7.36 |
| O=S(=O)(O)c1nc2ccccc2s1 | -6.2 |
| O=C(CCc1nnc2n(Cc3ccc(F)cc3)c(=O)c3ccccc3n12)NCc1cccnc1 | -0.692 |
| O=C(NCc1ccccc1)/C(=C/c1ccc2c(c1)OCO2)NC(=O)c1ccccc1Cl | 23.4 |
| CC(C)(C)C(=O)/C(=C/c1ccncc1)n1cncn1 | -5.33 |
| Cc1cc(C(=O)Nc2c(C)nn(Cc3ccccc3)c2C)no1 | 1.82 |
| CCOC(=O)N1CCN(S(=O)(=O)N2CCCC(C(=O)NCCc3ccc(Cl)cc3)C2)CC1 (centres unmarked) | -1.34 |
| C/C(CC(=O)c1ccccc1)=C1\C(=O)NN(c2ccccc2)C1=O | -3.13 |
| Cc1cc(NCc2ccccn2)nc2ccccc12 | 0.0538 |
| Cc1cc(C)c2c3c(sc2n1)C(c1ccc(F)c(F)c1)C(C#N)=C(N)O3 (centres unmarked) | 6.29 |
| COc1ccc(C2C(=O)N(C3CCCCC3)CC(=O)N2Cc2ccc3c(c2)OCO3)cc1 (centres unmarked) | 2.9 |
| COc1ccc(C(=O)Nc2ccc(N3CCN(C)CC3)cc2)cc1 | 4 |
| CC1CN(C(=O)c2c(NC(=O)c3ccccc3)sc3c2CCC(C(C)(C)C)C3)CC(C)O1 (centres unmarked) | -1.4 |
| Cc1ccc(CNC(=O)CSc2ccc(-c3cccs3)nn2)cc1 | -1.11 |
| Cc1ccc(CNCc2ccccc2Cl)cc1 | 3.99 |
| CCNC(=O)c1cc2c(=O)n3cc(C)ccc3nc2n(CCc2ccccc2)c1=N | 3.6 |

| Structure (SMILES) | % Inhibition @ 10 uM [%] |
| --- | --- |
| O=S(=O)(NC1(C(F)(F)F)OCCO1)c1ccccc1 | 1.62 |
| CC(CCc1ccccc1)NCCN(C)C (centres unmarked) | -0.0908 |
| Nc1ccc(S(=O)(=O)Nc2nccc(/C=C/c3cccc(Br)c3)n2)cc1 | 0.687 |
| COc1ccc(C2N3CC4(C)CN2CC(C)(C3)C4)cc1 (centres unmarked) | 0.67 |
| CN(C)c1ccnc(SCC(N)=O)c1C#N | -5.68 |
| CC(=O)Nc1cccc(NC(=N)Nc2nc(C)cc(C)n2)c1 | 3.57 |
| CCCN(CCO)C1CCN(Cc2ccccc2)CC1 | -9.34 |
| Fc1ccc(N2CCN(Cc3ccoc3)CC2)cc1 | 7.03 |
| O=C(NCc1cccnc1)C1CC(c2ccc(F)cc2)=NO1 (centres unmarked) | -2.16 |
| COc1cccc(C2C(C#N)=C(N)Oc3c2ccc2ccccc32)c1 (centres unmarked) | 0.912 |
| Cc1ccc(C)c(S(=O)(=O)NCC(=O)Nc2sc3c(c2C(N)=O)CCC(C)C3)c1 (centres unmarked) | -1.28 |
| CCC(C)NC(=O)CCNS(=O)(=O)c1ccc2[nH]c(-c3ccccc3)nc2c1 (centres unmarked) | -4.68 |
| CN(Cc1ccccc1)C(=O)Cn1cnc2c1c(=O)n(C)c(=O)n2C | -2.15 |
| c1ccc(CNc2nnns2)cc1 | 19.3 |
| Cc1sc(NC(=O)COc2ccc(Br)cc2)c(C(N)=O)c1C | -0.95 |
| FC(F)(F)c1ccc(-c2noc(-c3ccc4c(c3)OCO4)n2)cc1 | -0.671 |
| COc1ccc(CCNC(=O)CCN2C(=S)NC(C)(C)CC2C)cc1OC (centres unmarked) | 2.73 |
| CC(=O)c1cc(-c2ccccc2)n(CC(=O)Nc2ccc(C)cn2)c1C | -1.88 |
| Cc1cc(/C=C2\SC(=O)N(CCOc3ccc(F)cc3)C2=O)c(C)n1-c1cccnc1 | 4.18 |
| COc1cccc(C(=O)NC(c2ccco2)c2c(O)ccc3ccccc23)c1 (centres unmarked) | 1.86 |
| COc1ccc(-n2cc(-c3ccccc3)c3c(NCC4CCCO4)ncnc32)cc1 (centres unmarked) | 6.44 |
| COC(=O)/C=c1\sc2ncnn2c1=O | 0.147 |
| Cc1ccc(C(=O)N/C(=C/c2cccc(Oc3ccccc3)c2)C(=O)NCc2ccccc2)cc1 | -6.82 |
